# Measured values taken from PubChem BioAssay AID624296 (National Center for Advancing Translational Sciences (NCATS), 2012).
# The campaign covered roughly 350,000 compounds. About 9,900 (2.8%) were called active. The shares of active, inactive and inconclusive entries below differ from those in the screen. Calls follow the shape of the dose curve; as a rule, active = well fitted activation curve with a large enough effect; inconclusive = small, poorly fitted or top-dose-only effect; inactive = no such curve, though single readings can be large or run the other way. No potency is given beside an inconclusive call; the fits are too rough.
# Assay: A quantitative high throughput screen for small molecules that induce DNA re-replication in MCF 10a normal breast cells. Also: nearly all actives have a fitted effect of over 50% in size. As to activity, positive = re-replication: % of control where 0% means no effect.
# Settings: MCF 10A DNA re-replication, Hoechst nuclear intensity, 48 h; activity, positive = re-replication: at 46.1 µM (top of the series)
# Potency is read from the fitted curve at half-maximal effect; tags tell the direction and shape of the fitted curve.
Structure (SMILES),Potency,"activity, positive = re-replication"
COc1ccccc1/C=C/C=N/n1c(-c2n[nH]c3c2CCC3)n[nH]c1=S,"inconclusive [activator, single point]",–
CC(C)C(=O)Nc1nc2ccc(S(C)(=O)=O)cc2s1,"inconclusive [activator, partial curve, poor fit]",–
COC(=O)N/N=C/C1=CCC2CC1C2(C)C (centres undefined),–,inactive: -23.6%
Cc1ccc(C(=O)Nc2ccc(Nc3ccccc3)cc2)c(Cl)c1,"inconclusive [activator, single point]",–
CC(C)c1ccc(OCC(=O)NC(=S)Nc2ccc3c4c(cccc24)CC3)cc1,"inconclusive [activator, single point]",–
C=CCn1c(SCC(=O)c2cc(C)n(C(C)COC)c2C)nc2sc(C)c(C)c2c1=O (centres undefined),active: 18.4 µM,–
N#C/C(=C\c1c[nH]c2ccccc12)C(=O)Nc1ncc(Cc2ccc(Cl)cc2Cl)s1,active: 3.26 µM,–
CCOC(=O)C1=C(Nc2ccc(C)cc2)CC(C)(O)C(C(=O)OCC)C1c1ccccc1 (centres undefined),"inconclusive [activator, single point]",–
O=C(CCN1CCCC1)c1cccs1,active: 23.1 µM,–
Cc1c(C(=O)NC2CCN(Cc3ccccc3)C2)oc2ccc(Br)cc12 (centres undefined),"inconclusive [activator, partial curve]",–
CCOC(=O)CCSc1nc(N2CCOCC2)c2c(c1C#N)CC(C)(C)OC2,–,inactive: -1.69%
COC(=O)N/N=C(C)\C=C\c1ccco1,"inconclusive [activator, single point]",–
COc1ccccc1NC(=O)NNC(=O)COc1ccc2ccccc2c1,"inconclusive [activator, single point]",–
CCC1CCCCN1CCCNC(=O)CCNC(=O)Cn1cnc2ccccc2c1=O (centres undefined),–,inactive: -1.53%
O=S1(=O)CCO[C@H]2Cc3ccccc3[C@H]2N1Cc1cccc(C(F)(F)F)c1,"inconclusive [activator, partial curve, poor fit]",–
COc1ccc(N=Cc2c(O)[nH]c3ccccc23)cc1OC,"inconclusive [activator, full curve]",–
CCCC/C(C)=N/NC(=O)CN(c1ccc(Br)cc1)S(=O)(=O)c1ccccc1,–,inactive: 16.2%
CCCCn1c(CN(Cc2ccccc2)Cc2ccccc2)nc2c1c(=O)n(C)c(=O)n2C,"inconclusive [activator, partial curve, poor fit]",–
CC1(C)Cc2c(C#N)c(NCCN3CCOCC3)nc(-c3ccco3)c2CO1,active: 23.1 µM,–
Cc1ccc(C(=O)CSC2=C(C#N)C(c3ccco3)CC(=O)N2)c(C)c1 (centres undefined),–,inactive: 24.6%
CCCc1cc(=O)oc2cc(OC(C)C(=O)NCCCn3ccnc3)ccc12 (centres undefined),–,inactive: 19.8%
O=C(Cc1ccccc1F)Nc1nc(-c2ccc(F)cc2)cs1,"inconclusive [activator, single point]",–
O=C(COC(=O)C1=COCCO1)NC(=O)c1ccc(OC(F)F)cc1,"inconclusive [activator, partial curve, poor fit]",–
Oc1ccccc1/C=N/Nc1nccnc1Cl,"inconclusive [activator, full curve, poor fit]",–
CC1CCN(CCCNC(=O)c2cc3c(=O)n(C)c4ccccc4c3n2C)CC1,–,inactive: 14.9%

Structure (SMILES),Potency,"activity, positive = re-replication"
O=C(C1=C[C@@H](c2ccc(Br)cc2)C[C@@H](OCc2ccc(CO)cc2)O1)N1CCN(Cc2ccc3c(c2)OCO3)CC1,"inconclusive [activator, single point]",–
CC(C)c1ccc(NC(=O)CCNS(=O)(=O)c2cc(Br)cnc2N)cc1,–,inactive: 8.57%
COc1cc(CN2CCN(Cc3ccccc3C(F)(F)F)CC2)cc(OC)c1OC,"inconclusive [activator, partial curve]",–
O=C(N1CCCC1)C12CC3CC(CC(Cl)(C3)C1)C2,–,inactive: -3.72%
Cc1cccnc1Oc1ncccc1N,–,inactive: 1.88%
Fc1ccc(-c2csc(-c3ccncc3)n2)cc1,–,inactive: -2.79%
O=C(N/N=C/c1ccc(O)c(Br)c1)c1cc2c(ccc3ccccc32)o1,"inconclusive [activator, single point]",–
COCCn1c(C)cc(C(=O)CSc2ccc3ccccc3n2)c1C,"inconclusive [activator, partial curve, poor fit]",–
Cc1c(C=O)c2cc(OCc3ccccc3)ccc2n1C,–,inactive: 6.42%
O=C(CN1C(=O)/C(=C/c2ccccc2F)Sc2ccccc21)NCCCN1CCOCC1,"inconclusive [activator, partial curve, poor fit]",–
Cc1cccc2c1Sc1ccccc1CC2=O,–,inactive: -2.37%
COC(=O)c1c(-c2ccc(F)cc2)csc1NC(=O)C1CCCO1 (centres undefined),"inconclusive [activator, partial curve, poor fit]",–
CN(C)c1ccc(NS(=O)(=O)c2ccc(Cl)cc2)cc1,–,inactive: 1.4%
CC(/C=C/c1ccc2c(c1)OCO2)=N/NC(=O)c1ccc(C)nc1,"inconclusive [activator, single point]",–
COc1cccc(Nc2nc(-c3sc(NC(=O)c4ccccc4)nc3C)cs2)c1,"inconclusive [activator, full curve, poor fit]",–
O=C1c2ccccc2NC2(CCCC2)N1O,–,inactive: 13.8%
O=C(Nc1nnc(-c2ccncc2)o1)C1CCCCC1,–,inactive: -7.72%
Cc1nn(-c2ccccc2)c2nc(-c3cccs3)cc(C(=O)NN)c12,–,inactive: 2.07%
CCOc1ccc(NC(=O)CSc2nnnn2C2CCCC2)cc1,–,inactive: -17.8%
COc1ccc(C(CNC(=O)c2cccc(S(=O)(=O)N(C)c3ccccc3)c2)N2CCCC2)cc1 (centres undefined),–,inactive: -0.716%
CC1(C)c2[nH]c3ccccc3c2C[C@@H]2C(=O)N(Cc3ccc(F)cc3)C(=O)N21,active: 18.4 µM,–
Cc1cc(Br)ccc1NC(=O)c1sc2ncnc(N3CCN(c4ccccn4)CC3)c2c1C,active: 7.31 µM,–
O=C(NCc1ccccc1)c1c(O)c2cccc3c2n(c1=O)CCC3,"inconclusive [activator, single point]",–
Cc1cc(C)n(CCNC(=O)CC2C(=O)NCCN2Cc2ccc(C)o2)n1 (centres undefined),"inconclusive [activator, single point]",–
